A short description of the data set: Monomeric content of purified conjugates by size exclusion chromatography. Type of data set: physicochemical. The conditions noted are these: for Monomeric content: SEC after Protein A affinity purification, ExpiCHO-S expression. Here is the method: The expressed conjugates were purified by Protein A affinity chromatography on an ÄktaSTART system using mAbSelect SuRe columns (GE Healthcare, #11003493). A 20 mM sodium phosphate, 0.15 M sodium chloride (pH 7.3) buffer was used as binding and wash buffer, 0.1 M glycine (pH 2.5) as elution buffer and 1M Tris-HCl (pH 8.5) as neutralization buffer.
In total, 25 μg of the respective conjugate in 100 μl were injected onto a Superdex Increase 200 10/30 GL gel filtration column (GE Healthcare, #28989336) coupled to an Agilent 1200 series HPLC system. SEC runs were performed at a 0.5 ml/min flow rate with PBS as a running buffer. Proteins were detected by an online 280 nm absorption measurement. Data analysis and peak integrations were performed using GraphPad Prism 8.0.

B1: SP031: bispecific conjugate, anti-CD40 antibody A9 HC linked to mouse scFv (SEQ ID NO:57) with LC SEQ ID NO:58 (antibody)
heavy: EVQLLESGGGLVQPGGSLRLSCAASGFTFSSYAMSWVRQAPGKGLEWVSGISGYSGSTYYADSVKGRFTISRDNSKNTLYLQMNSLRAEDTAVYYCARYYSYYGYYYFDYWGQGTLVTVSSASTKGPSVFPLAPCSRSTSESTAALGCLVKDYFPEPVTVSWNSGALTSGVHTFPAVLQSSGLYSLSSVVTVPSSNFGTQTYTCNVDHKPSNTKVDKTVERKCCVECPPCPAPPVAGPSVFLFPPKPKDTLMISRTPEVTCVVVDVSHEDPEVQFNWYVDGVEVHNAKTKPREEQFNSTFRVVSVLTVVHQDWLNGKEYKCKVSNKGLPAPIEKTISKTKGQPREPQVYTLPPSREEMTKNQVSLTCLVKGFYPSDIAVEWESNGQPENNYKTTPPMLDSDGSFFLYSKLTVDKSRWQQGNVFSCSVMHEALHNHYTQKSLSLSPGKGGGGSGGGGSEVRLLQSGAALVRPGASVKLSCTASGFNIKDFNIHWVKQRPEQGLEWIGRIDPENGDAEYVPKFQVRATMTTDTSSNTVYLHLSSLTSGDTAVYYCTTGSYDLDVEYWGQGTTLTVSSGGGGSGGGGSGGGGSGGGGSELQMTQSPSSLSASLGDTVTITCHASQNINVWLSWYQQRPGNIPKLLIYKASTLHTGVPSRFRGSGSGTGFTLTISSLQPEDIATYYCQQGQSYPLTFGAGTKLELK
light: DIQMTQSPSSLSASVGDRVTITCRASQSISSYLNWYQQKPGKAPKLLIYAASSLQSGVPSRFSGSGSGTDFTLTISSLQPEDFATYYCQQGYPYPFTFGQGTKLEIKRTVAAPSVFIFPPSDEQLKSGTASVVCLLNNFYPREAKVQWKVDNALQSGNSQESVTEQDSKDSTYSLSSTLTLSKADYEKHKVYACEVTHQGLSSPVTKSFNRGEC
modifications: A9 heavy chain without entry
B1 had a Monomeric content of 85.3%. For the same molecule, the “smaller, non-native population of lower molecular species” value (SEC after affinity purification, share of the total sample) came to 14.7%.

B2: SP019: bispecific conjugate, anti-CD40 Ab HC linked to humanized scFv (SEQ ID NO:60) with LC SEQ ID NO:58 (antibody)
heavy: EVQLLESGGGLVQPGGSLRLSCAASGFTFSSYAMSWVRQAPGKGLEWVSGISGYSGSTYYADSVKGRFTISRDNSKNTLYLQMNSLRAEDTAVYYCARYYSYYGYYYFDYWGQGTLVTVSSASTKGPSVFPLAPCSRSTSESTAALGCLVKDYFPEPVTVSWNSGALTSGVHTFPAVLQSSGLYSLSSVVTVPSSNFGTQTYTCNVDHKPSNTKVDKTVERKCCVECPPCPAPPVAGPSVFLFPPKPKDTLMISRTPEVTCVVVDVSHEDPEVQFNWYVDGVEVHNAKTKPREEQFNSTFRVVSVLTVVHQDWLNGKEYKCKVSNKGLPAPIEKTISKTKGQPREPQVYTLPPSREEMTKNQVSLTCLVKGFYPSDIAVEWESNGQPENNYKTTPPMLDSDGSFFLYSKLTVDKSRWQQGNVFSCSVMHEALHNHYTQKSLSLSPGKGGGGSGGGGSQVQLVQSGAEVKKPGASVKVSCKASGFNIKDFNIHWVRQAPGQGLEWIGRIDPESGDAEYVPKFQGRVTMTRDTSTSTVYMELSSLRSEDTAVYYCTTGSYDLDVEYWGQGTLVTVSSGGGGSGGGGSGGGGSGGGGSDIQMTQSPSSLSASVGDRVTITCHASQNINVWLSWYQQKPGKAPKLLIYKASTLHTGVPSRFSGSGSGTDFTLTISSLQPEDFATYYCQQGQSYPLTFGQGTKLEIK
light: DIQMTQSPSSLSASVGDRVTITCRASQSISSYLNWYQQKPGKAPKLLIYAASSLQSGVPSRFSGSGSGTDFTLTISSLQPEDFATYYCQQGYPYPFTFGQGTKLEIKRTVAAPSVFIFPPSDEQLKSGTASVVCLLNNFYPREAKVQWKVDNALQSGNSQESVTEQDSKDSTYSLSSTLTLSKADYEKHKVYACEVTHQGLSSPVTKSFNRGEC
B2 showed a Monomeric content of 99.2%.

B3: SP007: bispecific conjugate, anti-CD40 Ab HC linked to humanized scFv (SEQ ID NO:59) with LC SEQ ID NO:58 (antibody)
heavy: EVQLLESGGGLVQPGGSLRLSCAASGFTFSSYAMSWVRQAPGKGLEWVSGISGYSGSTYYADSVKGRFTISRDNSKNTLYLQMNSLRAEDTAVYYCARYYSYYGYYYFDYWGQGTLVTVSSASTKGPSVFPLAPCSRSTSESTAALGCLVKDYFPEPVTVSWNSGALTSGVHTFPAVLQSSGLYSLSSVVTVPSSNFGTQTYTCNVDHKPSNTKVDKTVERKCCVECPPCPAPPVAGPSVFLFPPKPKDTLMISRTPEVTCVVVDVSHEDPEVQFNWYVDGVEVHNAKTKPREEQFNSTFRVVSVLTVVHQDWLNGKEYKCKVSNKGLPAPIEKTISKTKGQPREPQVYTLPPSREEMTKNQVSLTCLVKGFYPSDIAVEWESNGQPENNYKTTPPMLDSDGSFFLYSKLTVDKSRWQQGNVFSCSVMHEALHNHYTQKSLSLSPGKGGGGSGGGGSQVQLVQSGAEVKKPGASVKVSCKASGFNIKDFNIHWVRQAPGQGLEWIGRIDPENGDAEYVPKFQGRVTMTRDTSTSTVYMELSSLRSEDTAVYYCTTGSYDLDVEYWGQGTLVTVSSGGGGSGGGGSGGGGSGGGGSDIQMTQSPSSLSASVGDRVTITCHASQNINVWLSWYQQKPGKAPKLLIYKASTLHTGVPSRFSGSGSGTDFTLTISSLQPEDFATYYCQQGQSYPLTFGQGTKLEIK
light: DIQMTQSPSSLSASVGDRVTITCRASQSISSYLNWYQQKPGKAPKLLIYAASSLQSGVPSRFSGSGSGTDFTLTISSLQPEDFATYYCQQGYPYPFTFGQGTKLEIKRTVAAPSVFIFPPSDEQLKSGTASVVCLLNNFYPREAKVQWKVDNALQSGNSQESVTEQDSKDSTYSLSSTLTLSKADYEKHKVYACEVTHQGLSSPVTKSFNRGEC
For B3, the Monomeric content is 95.0%.

B4: SP027: bispecific conjugate, anti-CD40 Ab HC linked to humanized scFv (SEQ ID NO:60) with LC SEQ ID NO:61 (antibody)
heavy: EVQLLESGGGLVQPGGSLRLSCAASGFTFSSYAMSWVRQAPGKGLEWVSGISGYSGSTYYADSVKGRFTISRDNSKNTLYLQMNSLRAEDTAVYYCARYYSYYGYYYFDYWGQGTLVTVSSASTKGPSVFPLAPCSRSTSESTAALGCLVKDYFPEPVTVSWNSGALTSGVHTFPAVLQSSGLYSLSSVVTVPSSNFGTQTYTCNVDHKPSNTKVDKTVERKCCVECPPCPAPPVAGPSVFLFPPKPKDTLMISRTPEVTCVVVDVSHEDPEVQFNWYVDGVEVHNAKTKPREEQFNSTFRVVSVLTVVHQDWLNGKEYKCKVSNKGLPAPIEKTISKTKGQPREPQVYTLPPSREEMTKNQVSLTCLVKGFYPSDIAVEWESNGQPENNYKTTPPMLDSDGSFFLYSKLTVDKSRWQQGNVFSCSVMHEALHNHYTQKSLSLSPGKGGGGSGGGGSQVQLVQSGAEVKKPGASVKVSCKASGFNIKDFNIHWVRQAPGQGLEWIGRIDPESGDAEYVPKFQGRVTMTRDTSTSTVYMELSSLRSEDTAVYYCTTGSYDLDVEYWGQGTLVTVSSGGGGSGGGGSGGGGSGGGGSDIQMTQSPSSLSASVGDRVTITCHASQNINVWLSWYQQKPGKAPKLLIYKASTLHTGVPSRFSGSGSGTDFTLTISSLQPEDFATYYCQQGQSYPLTFGQGTKLEIK
light: DIQMTQSPSSLSASVGDRVTITCRASQSISSYLNWYQQKPGKAPKLLIYAASFLQSGVPSRFSGSGSGTDFTLTISSLQPEDFATYYCQQGYPYPFTFGQGTKLEIKRTVAAPSVFIFPPSDEQLKSGTASVVCLLNNFYPREAKVQWKVDNALQSGNSQESVTEQDSKDSTYSLSSTLTLSKADYEKHKVYACEVTHQGLSSPVTKSFNRGEC
For B4, the Monomeric content came out at 95.6%.

Source of the values: US20260199502A1, “BINDING MOLECULE” (priority 2022, published 2026).
